Hit rate of the full screen: of about 45,000 compounds, about 200 (0.44%) were called active. Inconclusive results (about 7%) are left out. The call rests on the fitted dose curve; in most records, active means well fitted activation curve with a large enough effect; inconclusive means small, poorly fitted or top-dose-only effect; inactive means no such curve, though single readings can be large or run the other way. Some of the results follow.

Results on 28 molecules are retold here after PubChem BioAssay AID1347073 (National Center for Advancing Translational Sciences (NCATS), 2019).

A short description of this test: qHTS of TDP-43 Inhibitors: NCGC Sytravon Library Screen. Further: 0% is about no effect; nearly all actives have a fitted effect of over 55% in size. As to conditions: yeast TDP-43 toxicity rescue, BacTiter-Glo growth, 24 h; series mostly up to 46.1 µM; growth rescue (activation): at the top concentration. Summed up:
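TDP-43-expressing yeast, pregrown in raffinose, seeded at OD600 0.02 in galactose medium with compound for 24 hr at 30 deg C. Growth read by BacTiter-Glo luminescence, so rescue of toxicity appears as activation.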
In general terms: Quantitative high-throughput screening tests each substance at several concentrations.
For `CCN1CCCC1CN(Cc1cc2ccc(C)cc2[nH]c1=O)C(=S)Nc1ccc(OC)cc1` (stereo not drawn), the “growth rescue (activation)” value is inactive: -3.65%. As to `CCN(c1ccccc1)S(=O)(=O)c1ccc(C(=O)NCCc2ccc(S(N)(=O)=O)cc2)cc1`, the “growth rescue (activation)” value is inactive: 0.665%.

In the case of `Nc1nc(SCc2ccc(Br)cc2)n[nH]1`, the “growth rescue (activation)” value is inactive: -11.5%. The figure for `COc1ccc(/C(=C/c2ccc(OC(F)F)c(OC)c2)C(=O)O)cc1OC` is inactive: 18.9%.

Take `CCNC(=O)C1CCCN(Cc2cc(C(F)(F)F)ccc2Cl)CC1` (stereo not drawn): the “growth rescue (activation)” value was inactive: -13.1%. The figure for `CCN(CC)S(=O)(=O)c1nnc(NC(=O)COc2ccccc2F)s1` is inactive: 15.2%. Take `O=C(COC(=O)CNS(=O)(=O)c1ccccc1)NC12CC3CC(CC(C3)C1)C2`: the “growth rescue (activation)” value was inactive: -6.74%. Turning to `O=C(COc1ccccc1)NNC(=O)c1cc2ccccc2oc1=O`, the “growth rescue (activation)” value was inactive: 16.4%. Consider `CCc1cccc(C)c1Nc1c(-c2ccccc2)nc2sccn12`, for which the “growth rescue (activation)” value was inactive: 29.8%. `COC(=O)[C@@H](NC(=O)N1CCC(C)CC1)C(C)C`: the “growth rescue (activation)” value is inactive: 3.9%. The figure for `COC(=O)C1CCN(C(=O)Cn2nnc(-c3cccc(F)c3)n2)CC1` is inactive: 7.69%; for `CCOC(=O)C1(Cc2cccc(OC)c2)CCCN(C(=O)c2cc(C)on2)C1` (stereo not drawn) it is inactive: 10.7%; for `COc1ccc(-n2nc(C(=O)NCC(=O)NCc3cccc(F)c3)c3ccccc3c2=O)cc1Cl` it is inactive: 3.59%.

As for `CNS(=O)(=O)c1cc(NC(=O)c2cncn2-c2ccccc2)ccc1C`, the “growth rescue (activation)” value is inactive: 6.77%.

Regarding `Cc1c(C(=O)Nc2ccc(C(=O)O)cc2)cnn1C`, the “growth rescue (activation)” value was inactive: 3.89%.

As to `Cn1cc(CNCc2cnc3ccccn23)c(-c2ccc(Oc3ccccc3)cc2)n1`, the “growth rescue (activation)” value was inactive: -7.31%.

With `Cc1ccc(C)n1NC(=O)c1ccccc1[N+](=O)[O-]`, the “growth rescue (activation)” value was inactive: 9.65%.

For `COc1cc(/C=N/Nc2nc(Nc3ccccc3)nc(-n3nc(C)cc3C)n2)cc(OC)c1OC`, the “growth rescue (activation)” value is inactive: 26.9%. The result for `Cc1cc(NC(=S)NC(=O)/C=C/c2ccc(S(=O)(=O)N3CCOCC3)cc2)ccc1Br` reads inactive: -6.09%; that for `CS(=O)(=O)c1ccc(C(=O)Nc2cc(S(C)(=O)=O)ccc2Cl)cc1`, inactive: -3.21%. Take `O=C(CN1C(=O)COc2ccccc21)NCCN1CCOCC1`: the “growth rescue (activation)” value is inactive: 2.27%.

For the molecule `CN(C(=O)COC(=O)c1ccc(Br)c(S(=O)(=O)N2CCOCC2)c1)C1CCCCC1`, the “growth rescue (activation)” value was inactive: 14.1%. With `O=C(O)CCCCCNc1ccc2nsnc2c1[N+](=O)[O-]`, the “growth rescue (activation)” value is inactive: 16.3%. The result for `COc1ccc(CC(NC(C)=O)C(=O)NC2CCN(C(=O)c3ccc(Cl)cc3)CC2)cc1` (stereo not drawn) reads inactive: 13%; that for `O=C(Nc1ccc(S(=O)(=O)Nc2ncccn2)cc1)C1CC(=O)N(c2ccccc2)C1` (stereo not drawn), inactive: 1.12%; that for `COc1ccc(S(=O)(=O)N2CCCCC2)cc1NC(=O)c1ccc([N+](=O)[O-])o1`, inactive: 6.63%.

Regarding `CCOC(=O)c1c(-c2ccc(C)cc2)csc1NC(=O)c1cc2ccccc2oc1=O`, the “growth rescue (activation)” value was inactive: 5.16%.

Turning to `CCOc1cc(CN2CCC(CO)(Cc3cccc(C(F)(F)F)c3)CC2)ccc1OC`, the “growth rescue (activation)” value was inactive: -4.3%.
